# Results reported in the supplement of paper PMC12217912.
# This is one part of the list. Sequences were assembled here from the parent chain. Inactive controls read about 0.05.
# B1: TEV protease; numbered along this chain (parent)
# chain: MGESLFKGPRDYNPISSSICHLTNESDGHTTSLYGIGFGPFIITNKHLFRRNNGTLVVQSLHGVFKVKDTTTLQQHLVDGRDMIIIRMPKDFPPFPQKLKFREPQREERICLVTTNFQTKSMSSMVSDTSCTFPSGDGIFWKHWIQTKDGQCGSPLVSTRDGFIVGIHSASNFTNTNNYFTSVPKNFMELLTNQEAQQWVSGWRLNADSVLWGGHKVFMVKPEEPFQPVKEATQL
# Variants of: B1
# Assay: raw area under fraction-flipped curve 0-4 h after induction (AUC4h, not background-subtracted), DNA-recorder readout of cleavage of the substrate (dimensionless); higher = more cleavage of the substrate by the protease variant
# Settings: temperature: 34 °C; time window: 0-4 h after rhamnose induction
# Procedure: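 In vivo DNA recorder in E. coli TOP10(DE3) ΔrhaA at 34 °C. Each TEVp single-site mutant (parent TEVp 0) is paired with a single-site variant of the 7-mer TEVs (canonical ENLYFQ|S). The substrate sits between flexible linkers in a Bxb1-sfGFP-TEVs-SsrA fusion, so cleavage stabilises Bxb1 and speeds flipping of a recombination array, read by NGS. The value is the raw area under the fraction-flipped curve over 0-4 h after rhamnose induction (AUC4h), with ≥20 reads per time point. It is not background-subtracted; inactive controls average about 0.047.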
# 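Further: Bxb1 expression induced with 0.2% (w/v) L-rhamnose at OD600 near 0.5, cultures sampled hourly, flipped fraction per protease–substrate barcode pair counted by paired-end Illumina sequencing.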
variant,measurement,value
MGRSLFKGPRDYNPISSSICHLTNESDGHTTSLYGIGFGPFIITNKHLFRRNNGTLVVQSLHGVFKVKDTTTLQQHLVDGRDMIIIRMPKDFPPFPQKLKFREPQREERICLVTTNFQTKSMSSMVSDTSCTFPSGDGIFWKHWIQTKDGQCGSPLVSTRDGFIVGIHSASNFTNTNNYFTSVPKNFMELLTNQEAQQWVSGWRLNADSVLWGGHKVFMVKPEEPFQPVKEATQL [E3R],area with substrate ENLYAQS,0.062
same,area with substrate ENLYDQS,0.0462
same,area with substrate ENLYEQS,0.0813
same,area with substrate ENLYGQS,0.0654
same,area with substrate ENLYHQS,0.0716
same,area with substrate ENLYKQS,0.0505
same,area with substrate ENLYLQS,0.0636
same,area with substrate ENLYMQS,0.0928
same,area with substrate ENLYNQS,0.0746
same,area with substrate ENLYQQS,0.0758
same,area with substrate ENLYRQS,0.0839
same,area with substrate ENLYSQS,0.0723
same,area with substrate ENLYTQS,0.0616
same,area with substrate ENLYVQS,0.114
same,area with substrate ENLYWQS,0.0903
MGEILFKGPRDYNPISSSICHLTNESDGHTTSLYGIGFGPFIITNKHLFRRNNGTLVVQSLHGVFKVKDTTTLQQHLVDGRDMIIIRMPKDFPPFPQKLKFREPQREERICLVTTNFQTKSMSSMVSDTSCTFPSGDGIFWKHWIQTKDGQCGSPLVSTRDGFIVGIHSASNFTNTNNYFTSVPKNFMELLTNQEAQQWVSGWRLNADSVLWGGHKVFMVKPEEPFQPVKEATQL [S4I],area with substrate ENLYAQS,0.0839
same,area with substrate ENLYDQS,0.0501
same,area with substrate ENLYEQS,0.0747
same,area with substrate ENLYGQS,0.056
same,area with substrate ENLYHQS,0.0219
same,area with substrate ENLYKQS,0.0752
same,area with substrate ENLYLQS,0.14
same,area with substrate ENLYMQS,0.0958
same,area with substrate ENLYQQS,0.0724
same,area with substrate ENLYRQS,0.0592
same,area with substrate ENLYSQS,0.0645
same,area with substrate ENLYTQS,0.103
same,area with substrate ENLYVQS,0.155
same,area with substrate ENLYWQS,0.0976
MGEYLFKGPRDYNPISSSICHLTNESDGHTTSLYGIGFGPFIITNKHLFRRNNGTLVVQSLHGVFKVKDTTTLQQHLVDGRDMIIIRMPKDFPPFPQKLKFREPQREERICLVTTNFQTKSMSSMVSDTSCTFPSGDGIFWKHWIQTKDGQCGSPLVSTRDGFIVGIHSASNFTNTNNYFTSVPKNFMELLTNQEAQQWVSGWRLNADSVLWGGHKVFMVKPEEPFQPVKEATQL [S4Y],area with substrate ENLYAQS,0.0397
same,area with substrate ENLYDQS,0.0565
same,area with substrate ENLYEQS,0.0567
same,area with substrate ENLYHQS,0.0561
same,area with substrate ENLYLQS,0.0927
same,area with substrate ENLYMQS,0.13
same,area with substrate ENLYPQS,0.0843
same,area with substrate ENLYRQS,0.0738
same,area with substrate ENLYSQS,0.101
same,area with substrate ENLYTQS,0.0873
same,area with substrate ENLYWQS,0.12
MGESLFKGCRDYNPISSSICHLTNESDGHTTSLYGIGFGPFIITNKHLFRRNNGTLVVQSLHGVFKVKDTTTLQQHLVDGRDMIIIRMPKDFPPFPQKLKFREPQREERICLVTTNFQTKSMSSMVSDTSCTFPSGDGIFWKHWIQTKDGQCGSPLVSTRDGFIVGIHSASNFTNTNNYFTSVPKNFMELLTNQEAQQWVSGWRLNADSVLWGGHKVFMVKPEEPFQPVKEATQL [P9C],area with substrate ENLYAQS,0.101
same,area with substrate ENLYDQS,0.0708
same,area with substrate ENLYEQS,0.11
same,area with substrate ENLYGQS,0.0691
same,area with substrate ENLYKQS,0.0485
same,area with substrate ENLYNQS,0.0625
same,area with substrate ENLYPQS,0.059
same,area with substrate ENLYQQS,0.075
same,area with substrate ENLYRQS,0.0558
same,area with substrate ENLYVQS,0.048
same,area with substrate ENLYYQS,0.0668
MGESLFKGRRDYNPISSSICHLTNESDGHTTSLYGIGFGPFIITNKHLFRRNNGTLVVQSLHGVFKVKDTTTLQQHLVDGRDMIIIRMPKDFPPFPQKLKFREPQREERICLVTTNFQTKSMSSMVSDTSCTFPSGDGIFWKHWIQTKDGQCGSPLVSTRDGFIVGIHSASNFTNTNNYFTSVPKNFMELLTNQEAQQWVSGWRLNADSVLWGGHKVFMVKPEEPFQPVKEATQL [P9R],area with substrate ENLYAQS,0.0808
same,area with substrate ENLYDQS,0.0716
same,area with substrate ENLYEQS,0.0676
same,area with substrate ENLYGQS,0.0749
same,area with substrate ENLYHQS,0.0721
same,area with substrate ENLYIQS,0.144
same,area with substrate ENLYKQS,0.0757
same,area with substrate ENLYLQS,0.0965
same,area with substrate ENLYMQS,0.105
same,area with substrate ENLYPQS,0.0976
same,area with substrate ENLYQQS,0.0591
same,area with substrate ENLYWQS,0.0904
same,area with substrate ENLYYQS,0.0556
MGESLFKGPDDYNPISSSICHLTNESDGHTTSLYGIGFGPFIITNKHLFRRNNGTLVVQSLHGVFKVKDTTTLQQHLVDGRDMIIIRMPKDFPPFPQKLKFREPQREERICLVTTNFQTKSMSSMVSDTSCTFPSGDGIFWKHWIQTKDGQCGSPLVSTRDGFIVGIHSASNFTNTNNYFTSVPKNFMELLTNQEAQQWVSGWRLNADSVLWGGHKVFMVKPEEPFQPVKEATQL [R10D],area with substrate ENLYAQS,0.0535
same,area with substrate ENLYDQS,0.0639
same,area with substrate ENLYEQS,0.0558
same,area with substrate ENLYGQS,0.0566
same,area with substrate ENLYHQS,0.0668
same,area with substrate ENLYIQS,0.151
same,area with substrate ENLYKQS,0.0749
same,area with substrate ENLYLQS,0.0934
same,area with substrate ENLYMQS,0.101
same,area with substrate ENLYNQS,0.0651
same,area with substrate ENLYPQS,0.0721
same,area with substrate ENLYQQS,0.0633
same,area with substrate ENLYRQS,0.0639
same,area with substrate ENLYSQS,0.0678
same,area with substrate ENLYVQS,0.0859
same,area with substrate ENLYWQS,0.0737
MGESLFKGPWDYNPISSSICHLTNESDGHTTSLYGIGFGPFIITNKHLFRRNNGTLVVQSLHGVFKVKDTTTLQQHLVDGRDMIIIRMPKDFPPFPQKLKFREPQREERICLVTTNFQTKSMSSMVSDTSCTFPSGDGIFWKHWIQTKDGQCGSPLVSTRDGFIVGIHSASNFTNTNNYFTSVPKNFMELLTNQEAQQWVSGWRLNADSVLWGGHKVFMVKPEEPFQPVKEATQL [R10W],area with substrate ENLYAQS,0.0745
same,area with substrate ENLYCQS,0.11
same,area with substrate ENLYDQS,0.0682
same,area with substrate ENLYEQS,0.0598
same,area with substrate ENLYGQS,0.0671
same,area with substrate ENLYHQS,0.066
same,area with substrate ENLYIQS,0.13
same,area with substrate ENLYKQS,0.056
same,area with substrate ENLYLQS,0.0879
same,area with substrate ENLYMQS,0.0898
same,area with substrate ENLYNQS,0.0685
same,area with substrate ENLYPQS,0.0676
same,area with substrate ENLYQQS,0.0486
same,area with substrate ENLYRQS,0.0551
same,area with substrate ENLYSQS,0.0775
same,area with substrate ENLYTQS,0.0827
same,area with substrate ENLYVQS,0.131
same,area with substrate ENLYWQS,0.0803
same,area with substrate ENLYYQS,0.0618
MGESLFKGPRFYNPISSSICHLTNESDGHTTSLYGIGFGPFIITNKHLFRRNNGTLVVQSLHGVFKVKDTTTLQQHLVDGRDMIIIRMPKDFPPFPQKLKFREPQREERICLVTTNFQTKSMSSMVSDTSCTFPSGDGIFWKHWIQTKDGQCGSPLVSTRDGFIVGIHSASNFTNTNNYFTSVPKNFMELLTNQEAQQWVSGWRLNADSVLWGGHKVFMVKPEEPFQPVKEATQL [D11F],area with substrate ENLYAQS,0.0599
same,area with substrate ENLYCQS,0.083
same,area with substrate ENLYEQS,0.0398
same,area with substrate ENLYGQS,0.0687
same,area with substrate ENLYHQS,0.0737
same,area with substrate ENLYKQS,0.0569
same,area with substrate ENLYMQS,0.0877
same,area with substrate ENLYNQS,0.0672
same,area with substrate ENLYPQS,0.0764
same,area with substrate ENLYQQS,0.054
same,area with substrate ENLYSQS,0.071
same,area with substrate ENLYVQS,0.0749
same,area with substrate ENLYWQS,0.0746
same,area with substrate ENLYYQS,0.0414
MGESLFKGPRPYNPISSSICHLTNESDGHTTSLYGIGFGPFIITNKHLFRRNNGTLVVQSLHGVFKVKDTTTLQQHLVDGRDMIIIRMPKDFPPFPQKLKFREPQREERICLVTTNFQTKSMSSMVSDTSCTFPSGDGIFWKHWIQTKDGQCGSPLVSTRDGFIVGIHSASNFTNTNNYFTSVPKNFMELLTNQEAQQWVSGWRLNADSVLWGGHKVFMVKPEEPFQPVKEATQL [D11P],area with substrate ENLYAQS,0.0529
same,area with substrate ENLYEQS,0.062
same,area with substrate ENLYHQS,0.0629
same,area with substrate ENLYIQS,0.0643
same,area with substrate ENLYMQS,0.0523
same,area with substrate ENLYNQS,0.0626
same,area with substrate ENLYPQS,0.0666
same,area with substrate ENLYQQS,0.0681
same,area with substrate ENLYRQS,0.071
same,area with substrate ENLYSQS,0.0588
same,area with substrate ENLYVQS,0.0597
same,area with substrate ENLYWQS,0.0656
